The record followed here is paper PMC4336329 (PLoS ONE, 2015).

Out of some 310,000 compounds screened, about 2,200 (0.71%) showed an effect of 50% or more. Effects have a minus sign here. This is one part of the list.

For the experiment, the target named is human ether-à-go-go-related gene (hERG) potassium channel (human, UniProt Q12809). The experiment is described as follows: primary screen, population patch clamp on CHO cells stably expressing hERG.
Chain of human ether-à-go-go-related gene (hERG) potassium channel (Q12809 whole entry, looked up): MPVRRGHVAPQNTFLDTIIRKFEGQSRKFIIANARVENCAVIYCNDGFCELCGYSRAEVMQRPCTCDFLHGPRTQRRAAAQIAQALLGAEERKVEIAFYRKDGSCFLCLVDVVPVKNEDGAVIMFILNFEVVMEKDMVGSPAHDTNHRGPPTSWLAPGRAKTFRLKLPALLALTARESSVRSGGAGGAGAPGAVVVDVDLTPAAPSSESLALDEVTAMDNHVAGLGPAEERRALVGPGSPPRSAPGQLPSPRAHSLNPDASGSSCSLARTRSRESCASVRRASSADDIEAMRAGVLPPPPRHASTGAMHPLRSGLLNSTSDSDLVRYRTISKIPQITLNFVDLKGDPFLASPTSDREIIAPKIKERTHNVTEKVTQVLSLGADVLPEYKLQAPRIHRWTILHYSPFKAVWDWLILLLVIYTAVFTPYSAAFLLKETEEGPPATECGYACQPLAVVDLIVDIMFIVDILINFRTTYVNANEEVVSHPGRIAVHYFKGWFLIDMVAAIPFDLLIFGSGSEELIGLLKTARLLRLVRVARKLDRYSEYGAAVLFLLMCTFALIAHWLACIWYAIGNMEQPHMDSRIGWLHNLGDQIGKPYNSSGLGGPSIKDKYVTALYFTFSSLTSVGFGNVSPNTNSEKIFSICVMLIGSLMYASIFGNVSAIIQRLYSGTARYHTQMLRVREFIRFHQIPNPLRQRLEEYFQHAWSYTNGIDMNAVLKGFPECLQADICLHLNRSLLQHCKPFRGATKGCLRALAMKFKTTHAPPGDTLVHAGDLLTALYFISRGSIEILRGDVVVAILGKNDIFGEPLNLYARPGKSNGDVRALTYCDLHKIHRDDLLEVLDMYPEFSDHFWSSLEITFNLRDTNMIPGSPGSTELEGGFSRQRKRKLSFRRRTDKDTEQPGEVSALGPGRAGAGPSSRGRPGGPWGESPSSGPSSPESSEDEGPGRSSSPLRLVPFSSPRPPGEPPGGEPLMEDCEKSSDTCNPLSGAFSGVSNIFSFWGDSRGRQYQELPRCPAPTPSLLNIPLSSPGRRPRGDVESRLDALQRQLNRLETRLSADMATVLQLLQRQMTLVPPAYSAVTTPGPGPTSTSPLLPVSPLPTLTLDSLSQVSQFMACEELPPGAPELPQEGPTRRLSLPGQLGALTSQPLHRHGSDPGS
Take `Cc1cccc(N(C(=O)c2csnn2)C(C(=O)NCc2ccccc2)c2ccc(C)o2)c1` (stereo not shown): the “hERG current change (%, negative = inhibition) at 1uM” value is -0.187%.

Consider `Cc1ccc2nc(NC(=O)COC(=O)c3ccccn3)sc2c1`, for which the “hERG current change (%, negative = inhibition) at 1uM” value was -10.4%.

With `CCOc1ccc(C/C(N)=N/n2cnnc2)cc1`, the “hERG current change (%, negative = inhibition) at 1uM” value is reported as -0.465%.

With `O=C(c1cc(-c2ccc(Cl)cc2)n(-c2cc(Cl)ccc2Cl)n1)N1CCOCC1`, the “hERG current change (%, negative = inhibition) at 1uM” value is -3.98%.

As for `COc1cccc2cc(C(=O)N3CCCCCCC3)c(=O)oc12`, the “hERG current change (%, negative = inhibition) at 1uM” value is 7.82%.

In the case of `CSc1ncc(-c2ccccc2)cn1`, the “hERG current change (%, negative = inhibition) at 1uM” value worked out at 10.5%.

As to `COc1cc(-c2nnc(SCC#CCO)o2)cc(OC)c1OC`, the “hERG current change (%, negative = inhibition) at 1uM” value is 5.22%.

Turning to `CC(C)OCCCNC(=S)Nc1ccc2nc3n(c(=O)c2c1)CCCCC3`, the “hERG current change (%, negative = inhibition) at 1uM” value was 0.691%.

For the compound `O=C(Nc1cccc(NC(=O)c2ccc(Cl)cc2Cl)c1)c1cccnc1`, the “hERG current change (%, negative = inhibition) at 1uM” value came to 16.5%.

As for `O=C(CC1C(=O)NCCN1C(=O)Nc1ccccc1)Nc1ccc2c(c1)OCO2` (stereo not shown), the “hERG current change (%, negative = inhibition) at 1uM” value is 16.4%.

Consider `CN(C1CCCCC1)S(=O)(=O)c1ccc(-c2ccccn2)s1`, for which the “hERG current change (%, negative = inhibition) at 1uM” value was found to be 1.67%.

As to `Cc1ccc(N(Cc2ccc(C(=O)NCC3CCCO3)cc2)S(C)(=O)=O)cc1C` (stereo not shown), the “hERG current change (%, negative = inhibition) at 1uM” value is 2.82%.

For `O=C(CCC(=O)NNC(=O)Nc1ccc(Cl)cc1)NCc1ccccc1`, the “hERG current change (%, negative = inhibition) at 1uM” value is 12.8%.

Regarding `COc1ccccc1N(C)S(=O)(=O)c1ccc(C(=O)NC2=NCCS2)cc1`, the “hERG current change (%, negative = inhibition) at 1uM” value is 6.97%.

On to `O=C(O)CC1S/C(=N\N=C/c2ccccc2)N(c2ccc(O)cc2)C1=O` (stereo not shown), for which the “hERG current change (%, negative = inhibition) at 1uM” value came to 8.02%.

In the case of `OC(CN1CCNCC1)Cn1ccc2ccccc21` (stereo not shown), the “hERG current change (%, negative = inhibition) at 1uM” value is listed as 7.24%.

On to `CCOC(=O)N1CCN(C(=O)c2ccccc2NC(=O)c2ccc(F)cc2)CC1`, for which the “hERG current change (%, negative = inhibition) at 1uM” value was 15.6%.

Take `CN(CC(=O)N1CCCC1)S(=O)(=O)c1cc(Cl)ccc1Cl`: the “hERG current change (%, negative = inhibition) at 1uM” value is 2.47%.

As to `Cc1nn(S(=O)(=O)c2ccc([N+](=O)[O-])cc2)c(C)c1Sc1ccccc1`, the “hERG current change (%, negative = inhibition) at 1uM” value is listed as 4.27%.

`O=C(NC1CCCCC1)c1ccccc1NC(=O)C1CC(=O)N(c2ccc(Cl)cc2)C1` (stereo not shown): the “hERG current change (%, negative = inhibition) at 1uM” value is 13.2%.

In the case of `COc1ccccc1C(=O)C1CCCN(C(=O)c2cc(CC(C)C)nc(C)n2)C1` (stereo not shown), the “hERG current change (%, negative = inhibition) at 1uM” value was -39.8%.

With `COc1ccc([N+](=O)[O-])cc1NC(=O)COC(=O)c1ccccc1O`, the “hERG current change (%, negative = inhibition) at 1uM” value came out at 23.4%.

Turning to `Cc1c(NS(=O)(=O)c2cccc([N+](=O)[O-])c2)c(=O)n(-c2ccccc2)n1C`, the “hERG current change (%, negative = inhibition) at 1uM” value turned out to be 12.9%.

On to `CCn1c(-c2ccccc2Cl)nn(CC(=O)Nc2cc(Cl)ccc2Cl)c1=S`, for which the “hERG current change (%, negative = inhibition) at 1uM” value stood at 9.28%.

For the compound `O=C(Nc1cccc(Br)c1)c1ccc(Cl)c(S(=O)(=O)N2CCOCC2)c1`, the “hERG current change (%, negative = inhibition) at 1uM” value is given as 9.35%.

Take `COc1ccc(-c2nc(-c3ccccc3)nc(N3CCN(C)CC3)c2C#N)cc1`: the “hERG current change (%, negative = inhibition) at 1uM” value was found to be 17.1%.

For the compound `COCCCNC(=O)c1ccc(CN2CCc3ccccc3C2)cc1`, the “hERG current change (%, negative = inhibition) at 1uM” value worked out at 12.8%.

In the case of `Cc1cccc(NC(=O)CCc2nc3sc4c(c3c(=O)[nH]2)CCCC4)c1`, the “hERG current change (%, negative = inhibition) at 1uM” value was 11.5%.

`CCN(CC(=O)Nc1c(F)cccc1F)C(=O)CSc1nnc(-c2ccco2)n1CC`: the “hERG current change (%, negative = inhibition) at 1uM” value turned out to be 9.72%.

For `O=S1(=O)CCOCCCN1Cc1ccc(Cl)cc1`, the “hERG current change (%, negative = inhibition) at 1uM” value was determined as 17.9%.

Turning to `COc1ccc(C2C(C#N)=C(N)Oc3n[nH]c(C)c32)cc1Cn1nc(C)c([N+](=O)[O-])c1C` (stereo not shown), the “hERG current change (%, negative = inhibition) at 1uM” value came out at 1.04%.

Take `O=C(Cn1ccc2ccccc2c1=O)N1CCN(c2cccc(Cl)c2)CC1`: the “hERG current change (%, negative = inhibition) at 1uM” value is reported as 13.3%.

As for `O=C(NCc1ccco1)c1ccc(CN2CCOCC2)cc1`, the “hERG current change (%, negative = inhibition) at 1uM” value is 12.2%.

Regarding `Cc1cc(C)c(NC(=O)NC(=O)c2cccc(F)c2)c(C)n1`, the “hERG current change (%, negative = inhibition) at 1uM” value was found to be 1.84%.

Take `Cc1ccc(N)c(C(O)(C(F)(F)F)C(F)(F)F)c1`: the “hERG current change (%, negative = inhibition) at 1uM” value was -2.32%.

`COc1cc(/C=C/C(=O)N2CCN(c3n[nH]c(=O)[nH]c3=O)CC2)cc(OC)c1OC`: the “hERG current change (%, negative = inhibition) at 1uM” value amounted to 8.88%.

`CCOC(=O)CN(C(=O)COc1nc(C)cc(C)c1C#N)c1cccc(Cl)c1`: the “hERG current change (%, negative = inhibition) at 1uM” value came to 9.23%.

On to `COc1ccc(Sc2nc(-c3ccccn3)ncc2OC)cc1`, for which the “hERG current change (%, negative = inhibition) at 1uM” value turned out to be 2.96%.

As to `CC(C)c1ccc(COc2ccc(C(=O)N3CCOCC3)cc2)cc1`, the “hERG current change (%, negative = inhibition) at 1uM” value is given as -1.08%.

For `CCC(C)c1ccc(OCCn2cc(/C=N/NC(=O)CSc3nnc(C)s3)c3ccccc32)cc1` (stereo not shown), the “hERG current change (%, negative = inhibition) at 1uM” value is given as 13.9%.

In the case of `Cc1cccc(-n2c(C)cc(C=C(C#N)C#N)c2C)c1`, the “hERG current change (%, negative = inhibition) at 1uM” value was found to be 10.6%.

With `Cc1cc2nccc(-c3ccc(Cl)c([N+](=O)[O-])c3)n2n1`, the “hERG current change (%, negative = inhibition) at 1uM” value is 19.4%.

For the compound `CCOC(=O)N1CCN(S(=O)(=O)c2ccc3[nH]c(=O)oc3c2)CC1`, the “hERG current change (%, negative = inhibition) at 1uM” value is 1.16%.

Regarding `O=C(C(Cc1ccccc1)NS(=O)(=O)c1cccc2cccnc12)N1CCc2ccccc21` (stereo not shown), the “hERG current change (%, negative = inhibition) at 1uM” value stood at 3.6%.

`COc1ccc(-c2cc(C(F)(F)F)n3nc(C(=O)NCCN4CCOCC4)cc3n2)cc1`: the “hERG current change (%, negative = inhibition) at 1uM” value turned out to be 7.08%.

`Cc1cc(C)nc(/N=C(\N)Nc2ccc(C(C)C)cc2)n1`: the “hERG current change (%, negative = inhibition) at 1uM” value is -3.29%.

Turning to `O=C(NCC(=O)N(c1cccnc1)C(C(=O)NC1CCCCC1)c1ccccc1F)c1ccco1` (stereo not shown), the “hERG current change (%, negative = inhibition) at 1uM” value came out at 16.7%.

In the case of `Cc1cc(C)c(C)c(S(=O)(=O)Nc2ccc(C(=O)N3CCCC3)cc2)c1C`, the “hERG current change (%, negative = inhibition) at 1uM” value is 7.53%.

In the case of `COC(=O)C1=C(c2ccc(OC)c(OC)c2)C[C@@H]2CC[C@H]1N2C(=O)N1CCC(C)CC1`, the “hERG current change (%, negative = inhibition) at 1uM” value was 17.2%.

With `COC(C[C@@H]1O[C@@H]1[C@H](O)COCc1ccccc1)OC`, the “hERG current change (%, negative = inhibition) at 1uM” value came to 10.5%.

With `Cc1ccc(C(=O)OCC(=O)N(CC(C)C)c2c(N)n(Cc3ccccc3)c(=O)[nH]c2=O)s1`, the “hERG current change (%, negative = inhibition) at 1uM” value was 16.4%.

Regarding `Cc1sc2nc(COC(=O)c3cccc(OC(F)F)c3)[nH]c(=O)c2c1C`, the “hERG current change (%, negative = inhibition) at 1uM” value is listed as 7.7%.

Turning to `NS(=O)(=O)c1ccc(NC(=O)c2ccc(CSc3ccccc3)o2)cc1`, the “hERG current change (%, negative = inhibition) at 1uM” value is -8.48%.

Consider `CCOC(=O)c1cc2sccc2n1CC(=O)OC(C)C`, for which the “hERG current change (%, negative = inhibition) at 1uM” value stood at 3.06%.

With `CC1=N/C(=C\c2ccc([N+](=O)[O-])cc2)C(=O)N1c1cc(Cl)ccc1C`, the “hERG current change (%, negative = inhibition) at 1uM” value is recorded as -1.29%.
